Reference: patent publication US11807625B2, “Capsid inhibitors for the prevention of HIV” (Gilead Sciences, Inc., priority 2019, dated 2023)
Values joined by “and” are separate entries in the source; they are usually repeats but may differ in a detail not shown here. Equal values may be shown once. This continues a long series; more values of the same kind are listed elsewhere.

Test: PK of compound of Formula (Ia) after single subcutaneous dose of solution formulations in beagle dogs
Assay type: in vivo
Settings: beagle dogs, SC 12 mg/kg, animals #1-#3, 12 mg/kg
Method: Formulations containing the compound of Formula (Ia), or a pharmaceutically acceptable salt thereof, were prepared as solutions and optionally administered subcutaneously or intramuscularly to rats, rabbits, and/or dogs.
A solution of about 400 mg/mL of the compound of Formula (Ia) having 17.00 w/w % water, 36.40 w/w % PEG 300, 35.20 w/w % of a sodium salt of a compound of Formula (Ia), 5.00 w/w % ethanol, and 6.40 w/w % poloxamer 188 was prepared. The solution was administered subcutaneously to male beagle dogs at a dose level of about 12 mg/kg and male Wistar Han rats at a dose level of about 50 mg/kg. The pharmacokinetic profiles were determined, and the results for dogs are summarized in Table and Table, while the results for rats are summarized in Table and Table below.
A solution of about 500 mg/mL of the compound of Formula (Ia) having 14.06 w/w % water, 30.12 w/w % PEG 300, […] of a sodium salt of a compound of Formula (Ia), 5.00 w/w % ethanol, and 6.40 w/w % poloxamer 188 was prepared. The solution was administered subcutaneously to male beagle dogs at a dose level of about 12 mg/kg and male Wistar Han rats at a dose level of about 50 mg/kg. The pharmacokinetic profiles were determined, and the results for dogs are summarized in Table and Table, while the results for rats are summarized in Table and Table below.
A solution of about 300 mg/mL of the compound of Formula (Ia) having 23.33 w/w % water, 48.99 w/w % PEG 300, 26.47 w/w % of a sodium salt of a compound of Formula (Ia), and 1.21 w/w % poloxamer 188 was prepared. The solution was administered subcutaneously to male beagle dogs at a dose level of about 6 mg/kg and male Wistar Han rats at a dose level of about 50 mg/kg. The pharmacokinetic profiles were determined, and the results for dogs are summarized in Table and Table, while the results for rats are summarized in Table and Table below.
A solution of about 400 mg/mL of the compound of Formula (Ia) having 18.80 w/w % water, 40.25 w/w % PEG 300, 34.38 w/w % of a sodium salt of a compound of Formula (Ia), 5.00 w/w % ethanol, and 1.57 w/w % poloxamer 188 was prepared. The solution was administered subcutaneously to male beagle dogs at a dose level of about 12 mg/kg and male Wistar Han rats at a dose level of about 50 mg/kg. The pharmacokinetic profiles were determined, and the results for dogs are summarized in Table and Table, while the results for rats are summarized in Table and Table below.
A solution of about 500 mg/mL of the compound of Formula (Ia) having 16.29 w/w % water, 34.88 w/w % PEG 300, 41.92 w/w % of a sodium salt of a compound of Formula (Ia), 5.00 w/w % ethanol, and 1.91 w/w % poloxamer 188 was prepared. The solution was administered subcutaneously to male beagle dogs at a dose level of about 12 mg/kg and male Wistar Han rats at a dose level of about 50 mg/kg. The pharmacokinetic profiles were determined, and the results for dogs are summarized in Table and Table, while the results for rats are summarized in Table and Table below.
A solution of about 400 mg/mL of the compound of Formula (Ia) having 20.90 w/w % water, 44.72 w/w % PEG 300, and 34.38 w/w % of a sodium salt of a compound of Formula (Ia) was prepared. The solution was administered subcutaneously to male beagle dogs at a dose level of about 12 mg/kg and male Wistar Han rats at a dose level of about 50 mg/kg. The pharmacokinetic profiles were determined, and the results for dogs are summarized in Table and Table, while the results for rats are summarized in Table and Table below.
A solution of about 400 mg/mL of the compound of Formula (Ia) having 19.90 w/w % water, 42.59 w/w % PEG 300, 34.38 w/w % of a sodium salt of a compound of Formula (Ia), and 3.13 w/w % poloxamer 188 was prepared. The solution was administered subcutaneously to male beagle dogs at a dose level of about 12 mg/kg and male Wistar Han rats at a dose level of about 50 mg/kg. […]

## CC(C)(C#Cc1ccc(-c2ccc(Cl)c3c(NS(C)(=O)=O)nn(CC(F)(F)F)c23)c([C@H](Cc2cc(F)cc(F)c2)NC(=O)Cn2nc(C(F)(F)F)c3c2C(F)(F)[C@@H]2C[C@H]32)n1)S(C)(=O)=O [compound of Formula (Ia)]
400 mg/mL solution W (5.00% ethanol, 1.57% poloxamer 188), 2352 h
  Plasma concentration: 29.2 nM and 19.7 nM
400 mg/mL solution W (5.00% ethanol, 1.57% poloxamer 188), 2688 h
  Plasma concentration: 18.3 nM and 11.6 nM
400 mg/mL solution W (5.00% ethanol, 1.57% poloxamer 188), 3024 h
  Plasma concentration: 14.8 nM and 8.8 nM
400 mg/mL solution W (5.00% ethanol, 1.57% poloxamer 188), 3360 h
  Plasma concentration: 10.0 nM and 5.4 nM
400 mg/mL solution Y (water, PEG 300), 72.0 h
  Plasma concentration: 60.2 nM and 41.7 nM
400 mg/mL solution Y (water, PEG 300), 96.0 h
  Plasma concentration: 61.3 nM and 40.0 nM
400 mg/mL solution Y (water, PEG 300), 168 h
  Plasma concentration: 49.2 nM and 53.1 nM
400 mg/mL solution Y (water, PEG 300), 336 h
  Plasma concentration: 145 nM and 185 nM
400 mg/mL solution Y (water, PEG 300), 504 h
  Plasma concentration: 230 nM and 267 nM
400 mg/mL solution Y (water, PEG 300), 672 h
  Plasma concentration: 182 nM and 204 nM
400 mg/mL solution Y (water, PEG 300), 840 h
  Plasma concentration: 116 nM and 118 nM
400 mg/mL solution Y (water, PEG 300), 1008 h
  Plasma concentration: 83.6 nM and 84.7 nM
400 mg/mL solution Y (water, PEG 300), 1334 h
  Plasma concentration: 49.0 nM and 55.0 nM
400 mg/mL solution Y (water, PEG 300), 1680 h
  Plasma concentration: 26.1 nM and 32.0 nM
400 mg/mL solution Y (water, PEG 300), 2016 h
  Plasma concentration: 16.0 nM and 22.2 nM
400 mg/mL solution Y (water, PEG 300), 2352 h
  Plasma concentration: 14.0 nM
400 mg/mL solution Y (water, PEG 300), 2688 h
  Plasma concentration: 10.3 nM and 9.88 nM
400 mg/mL solution Y (water, PEG 300), 3024 h
  Plasma concentration: 6.06 nM and 6.84 nM
400 mg/mL solution Z (3.13% poloxamer 188), 72.0 h
  Plasma concentration: 46.5 nM and 59.0 nM
400 mg/mL solution Z (3.13% poloxamer 188), 504 h
  Plasma concentration: 162 nM and 221 nM
400 mg/mL solution Z (3.13% poloxamer 188), 672 h
  Plasma concentration: 133 nM and 75.2 nM
400 mg/mL solution Z (3.13% poloxamer 188), 840 h
  Plasma concentration: 112 nM and 68.2 nM
400 mg/mL solution Z (3.13% poloxamer 188), 1008 h
  Plasma concentration: 83.7 nM and 62.8 nM
400 mg/mL solution Z (3.13% poloxamer 188), 1334 h
  Plasma concentration: 52.8 nM and 46.1 nM
400 mg/mL solution Z (3.13% poloxamer 188), 3024 h
  Plasma concentration: 6.54 nM and 6.65 nM
500 mg/mL solution X (5.00% ethanol, 1.91% poloxamer 188), 3.00 h
  Plasma concentration: 16.3 nM and 9.86 nM
500 mg/mL solution X (5.00% ethanol, 1.91% poloxamer 188), 8.00 h
  Plasma concentration: 34.2 nM and 21.8 nM
500 mg/mL solution X (5.00% ethanol, 1.91% poloxamer 188), 24.0 h
  Plasma concentration: 51.1 nM and 35.2 nM
500 mg/mL solution X (5.00% ethanol, 1.91% poloxamer 188), 48.0 h
  Plasma concentration: 59.5 nM and 34.8 nM
500 mg/mL solution X (5.00% ethanol, 1.91% poloxamer 188), 72.0 h
  Plasma concentration: 33.0 nM and 54.0 nM
